“And” between values parts separate entries of the source, which are not always exact repeats. Equal values may be shown once. Among all 270,000 compounds or so, about 620 (0.23%) were called active. The shares of active, inactive and inconclusive entries below differ from those in the screen. Calls come from the whole dose curve; as a rule, active = well fitted inhibition curve with a large enough effect in the polarisation, with a control signal flat (not every such curve was filed as active); inconclusive = small, poorly fitted or top-dose-only effect, or effect the other way, or a change in a side signal; inactive = no such curve, though single readings can be large or run the other way; the % refers to the polarisation. Where the call is inconclusive, the potency comes from a doubtful curve fit. A note “side channel” means that the fit belongs to a control or component signal, not to the main read-out.
Molecular target: Menin (Homo sapiens) (UniProt O00255)
Sequence of UniProt O00255 (O00255 whole entry, looked up): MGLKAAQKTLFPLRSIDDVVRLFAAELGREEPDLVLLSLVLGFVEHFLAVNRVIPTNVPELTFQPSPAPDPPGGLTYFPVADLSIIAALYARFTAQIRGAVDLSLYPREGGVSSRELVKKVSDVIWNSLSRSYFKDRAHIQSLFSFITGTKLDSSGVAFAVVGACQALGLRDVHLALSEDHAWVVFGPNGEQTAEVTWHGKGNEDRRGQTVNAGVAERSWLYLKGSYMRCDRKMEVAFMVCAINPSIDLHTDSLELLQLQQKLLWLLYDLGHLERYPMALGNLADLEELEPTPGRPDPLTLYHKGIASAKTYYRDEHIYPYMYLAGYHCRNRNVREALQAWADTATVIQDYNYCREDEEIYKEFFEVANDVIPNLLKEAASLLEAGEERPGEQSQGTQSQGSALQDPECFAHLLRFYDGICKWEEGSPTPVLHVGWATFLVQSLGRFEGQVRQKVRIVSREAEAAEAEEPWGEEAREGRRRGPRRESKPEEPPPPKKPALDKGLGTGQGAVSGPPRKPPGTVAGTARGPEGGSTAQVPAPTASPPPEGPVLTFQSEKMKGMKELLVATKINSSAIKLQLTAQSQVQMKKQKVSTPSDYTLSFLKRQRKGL
Test: qHTS Assay for Inhibitors Targeting the Menin-MLL Interaction in MLL Related Leukemias: Competition With Texas Red Labeled MLL-derived Mutant Peptide; for FP activity change, negative = inhibition: % of control where 0% means no effect
Details: fluorescence polarization; FP activity change, negative = inhibition: at 61.6 µM (top of the series)
Potency is the fitted concentration of half-maximal effect; tags give direction and shape of the fitted curve or compound fluorescence and quenching.

Structure (SMILES) | Potency | FP activity change, negative = inhibition
Cc1ccc(C)c(C(=O)COC(=O)c2cc([N+](=O)[O-])ccc2NCCO)c1 | inconclusive: 14.1 µM [quencher, side channel, partial curve] | 
CCN(CC)CCN(C(=O)C1=COCCO1)c1nc2cc(C)cc(C)c2s1 | inconclusive: 17.8 µM [fluorescent, side channel, partial curve] | 
COc1cc(NCc2ccccc2O)c2ncccc2c1 | inconclusive: 28.2 µM [quencher, side channel, partial curve] | 
N#C/C(=C(/O)COC(=O)Cc1c[nH]c2ccccc12)c1nc2ccccc2[nH]1 | inconclusive: 28.2 µM [quencher, side channel, partial curve] | 
O=[N+]([O-])c1ccc(/C=N/n2c(-c3ccccc3)n[nH]c2=S)cc1 | inconclusive: 39.8 µM [quencher, side channel, single point] | 
O=C(NCc1ccc2c(c1)OCO2)c1cccc(C(=O)NCc2ccc3c(c2)OCO3)c1 | inconclusive: 31.6 µM [quencher, side channel, single point] | 
CCOC(=O)C1=C(CN2CCN(C(=O)OCC)CC2)NC(=O)NC1c1ccc2c(c1)OCO2 (centres undefined) | inconclusive: 7.94 µM [fluorescent, side channel, full curve] | 
COc1cc(/C=N/NC(=O)C(Cc2c[nH]c3ccccc23)NC(=O)OCC(C)C)cc([N+](=O)[O-])c1O (centres undefined) | inconclusive: 25.1 µM [quencher, side channel, single point] | 
Cc1ccc(C2NC(=O)c3sc(=S)n(-c4ccccc4)c3N2)cc1 (centres undefined) | inconclusive: 28.2 µM [quencher, side channel, partial curve] | 
CC(=O)Nc1ccc(NC(=O)[C@@H]2CCCN2S(=O)(=O)c2ccc3c(c2)OCCO3)cc1 |  | inactive: -6.59%
COCCCNC(=O)/C(C#N)=C/c1c(N2CCN(c3cccc(Cl)c3)CC2)nc2c(C)cccn2c1=O | inconclusive: 2.82 µM [fluorescent, side channel, full curve, poor fit] | 
N=c1scc(-c2ccccc2)n1/N=C/c1ccco1 | inconclusive: 14.1 µM [quencher, side channel, partial curve] | 
CCCCN(CCCC)CCCNC(=O)Cn1cc2c(n1)-c1c(oc(C(=O)N3CCCC3)c1C)CC2 | inconclusive: 28.2 µM [fluorescent, side channel, single point] | 
Cn1c(=O)c2c([nH]c(=S)n2CCCc2ccccc2)n(C)c1=O | inconclusive: 10 µM [inhibitor, partial curve] | 
Cc1ccc(C)c(Cn2nnc3c(=O)[nH]c(C4CCCN(C(=O)c5cccs5)C4)nc32)c1 (centres undefined) | inconclusive: 1.41 µM [inhibitor, full curve, poor fit] | 
c1ccc(-c2csc(Nc3cccnc3)n2)cc1 | inconclusive: 31.6 µM [quencher, side channel, single point] | 
Cc1cc(C(C)(C)C)oc1C(=O)N(CC(=O)NC1CCCC1)c1c(C)cccc1C | inconclusive: 6.31 µM [fluorescent, side channel, partial curve] | 
Cc1ccc(NS(=O)(=O)c2ccc(N/N=C/c3ccncc3)c([N+](=O)[O-])c2)c(C)c1 | inconclusive: 10 µM [quencher, side channel, partial curve] | 
COc1ccc(-c2cn(Cc3ccc(C)cc3)nn2)cc1 | inconclusive: 25.1 µM [fluorescent, side channel, single point] | 
Cc1ccsc1C=Nc1ccc(O)cc1 | inconclusive: 31.6 µM [quencher, side channel, single point] | 
O=C(Cc1ccc(F)cc1)N/N=C/c1ccc(-c2ccc(Cl)c(C(=O)O)c2)o1 |  | inactive: -3.82%
COc1ccc(CCN(C)C(=O)C2CCCN(Cc3ccc(OC)c(OC)c3)C2)cc1OC (centres undefined) | inconclusive: 39.8 µM [inhibitor, single point] | 
CN(C(=O)CC1C(=O)NCCN1Cc1c(F)cccc1Cl)C1CCOCC1 (centres undefined) | inconclusive: 10 µM [inhibitor, partial curve] | 
O=C(COC(=O)CCC(=O)c1ccc(Cl)cc1)NCc1ccco1 | inconclusive: 12.6 µM [quencher, side channel, partial curve] | 
CCSc1nnc(-c2ccc(Cl)cc2)c2ccccc12 | inconclusive: 17.8 µM [fluorescent, side channel, partial curve] | 
COc1cc(/C=C(\C#N)c2nc3ccccc3[nH]2)ccc1Oc1ccc([N+](=O)[O-])cn1 | inconclusive: 12.6 µM [quencher, side channel, partial curve] | 
CS(=O)(=O)c1ccc(S(=O)CC(=O)Oc2ccc(Cl)cc2)c([N+](=O)[O-])c1 (centres undefined) | inconclusive: 20 µM [quencher, side channel, partial curve] | 

Structure (SMILES) | Potency | FP activity change, negative = inhibition
CC1CCN(S(=O)(=O)c2ccc(NC(=O)c3cccs3)cc2)CC1 | inconclusive: 14.1 µM [quencher, side channel, partial curve] | 
Nc1ccc(-c2ccc3ccccc3n2)cc1 | inconclusive: 14.1 µM [quencher, side channel, partial curve] and inconclusive: 17.8 µM [quencher, side channel, partial curve] | 
COc1ccccc1Nc1nc(N)nc(CN2CCC(Cc3ccccc3)CC2)n1 | inconclusive: 10 µM [inhibitor, partial curve] | 
O=C(CSc1nnc(-c2ccc(S(=O)(=O)N3CCCC3)cc2)o1)NCc1ccccc1 | inconclusive: 39.8 µM [inhibitor, single point] | 
O=C(OCc1ccccc1)C1=NNC2C(=O)N(Cc3ccccc3)C(=O)C12 (centres undefined) | inconclusive: 39.8 µM [inhibitor, single point] | 
CN(C)S(=O)(=O)c1ccc(Cl)c(NC(=O)CSc2nc3c(cc2C#N)C(=O)CCC3)c1 |  | inactive: -6.02%
COC(=O)CN(C)C(=O)c1ccccc1OC1CCN(S(C)(=O)=O)CC1 |  | inactive: 16.8%
CCOC(=O)C1=C(C)Nc2ncnn2C1c1cccs1 (centres undefined) | inconclusive: 3.55 µM [inhibitor, single point] | 
CCC(CC)C(=O)N(CCc1ccc(OC)cc1)Cc1nc2ccccc2c(=O)[nH]1 | inconclusive: 2.51 µM [fluorescent, side channel, full curve] | 
O=C(NC1CCCCC1)c1ccc(S(=O)(=O)c2ccccc2Cl)c([N+](=O)[O-])c1 | inconclusive: 12.6 µM [quencher, side channel, partial curve] | 
Cc1cc(C)c(OCCCCN(C)Cc2ccccc2)c(C)c1 | inconclusive: 6.31 µM [inhibitor, partial curve] | 
CCN1CCN(Cc2c(O)ccc3c2O/C(=C\C=C\c2ccccc2OC)C3=O)CC1 | inconclusive: 28.2 µM [quencher, side channel, single point] | 
O=c1c2c(nc(NCCO)n1CC1CCCCC1)-c1ccccc1CC21CCCC1 |  | inactive: -8.09%
Cc1onc(-c2ccc3c(c2)OCO3)c1-c1ccc2[nH]ccc2c1 | inconclusive: 22.4 µM [quencher, side channel, partial curve] | 
CCn1cc(C(=O)N2CCN(c3ccccn3)CC2)c(=O)c2cc(S(=O)(=O)N(C)C3CCCCC3)ccc21 | inconclusive: 14.1 µM [fluorescent, side channel, partial curve] | 
COc1ccc(-c2cc(C(=O)NCc3ccccc3)no2)cc1OC | inconclusive: 39.8 µM [fluorescent, side channel, single point] | 
O=C(C1CCN(c2ncnc3c2nc2n3CCCCC2)CC1)N1CCN(c2ccccc2F)CC1 | inconclusive: 10 µM [fluorescent, side channel, partial curve] | 
O=[N+]([O-])c1ccc2c(c1)S(=O)(=O)C=C2 | inconclusive: 22.4 µM [quencher, side channel, single point] | 
COc1cc(C(CCN2CCCC(C)C2)c2c(OC)cc(OC)c3c2OC(=O)CC3c2ccc(N(C)C)cc2)cc(OC)c1OC (centres undefined) | inconclusive: 3.55 µM [inhibitor, full curve, poor fit] | 
COc1ccccc1NC(=O)C(=O)N/N=C/c1ccc([N+](=O)[O-])s1 | inconclusive: 3.98 µM [quencher, side channel, full curve] | 
O=C(Cc1cccs1)Nc1ccc(-c2nnn(CC(=O)N3CCOCC3)n2)cc1 | inconclusive: 28.2 µM [quencher, side channel, partial curve] | 
Cc1ccc(NC(=O)NCC2CCN(Cc3cc(C)ccc3Cl)CC2)c(C)c1 | inconclusive: 10 µM [fluorescent, side channel, partial curve] | 
O=C1C=C(Nc2ccccc2)c2ccccc2C1=O | inconclusive: 12.6 µM [quencher, side channel, partial curve] | 
COc1cccc(-c2ccc(=O)n(CC(=O)Nc3ccc(S(=O)(=O)NCC(C)C)cc3)n2)c1 | inconclusive: 39.8 µM [fluorescent, side channel, single point] | 
Cc1nc2ncnn2c(N2CCN(C(=O)Cc3cccs3)CC2)c1C | inconclusive: 28.2 µM [quencher, side channel, single point] | 
Cc1ccc(C(=O)NCCSc2ccc(Cl)cc2)cc1[N+](=O)[O-] | inconclusive: 25.1 µM [inhibitor, partial curve] | 
COC(=O)c1nc2n(n1)C(c1ccccc1OC)C1=C(CCCC1=O)N2 (centres undefined) | inconclusive: 12.6 µM [inhibitor, partial curve, poor fit] | 
